Source: the supplement of paper PMC11417369
The other results are listed elsewhere or left out.

Each sequence was assayed on PF3D7_0420300 AP2 domain 1 (GST-tagged) (assay: gcPBM binding intensity (ln(normalized median fluorescence intensity)); higher = stronger DNA binding).
Summary of the method: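 An Agilent 4 × 180k array carrying primer-extended double-stranded 36-bp intergenic genomic probes and negative controls received GST-tagged P. falciparum DNA-binding domains expressed in E. coli, about 25 μg on average, for 1 h. The binding buffer contained 1× PBS, 1% milk, 0.2 mg/ml BSA, 0.5% salmon testes DNA and 0.03% Triton X-100. Binding intensity is the top Masliner-normalised natural-log median intensity across replicate spots of either probe orientation, read after Alexa488 anti-GST antibody staining and a 488 nm scan.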
For “TATCTGTAAATGGACACACACATATATATATATATA [CACACA_site5926]”, the “gcPBM binding intensity (ln)” value was 9.57.
In the case of “TTTTAAAAAAAATAAAAAATAAACAATAATAAATAA [CACACA_negctrl_site721]”, the “gcPBM binding intensity (ln)” value was 9.16.
In the case of “TCTTTATTATTCGCCACACACATATATATATATATA [CACACA_site3077]”, the “gcPBM binding intensity (ln)” value was 9.77.
“TATATATATAAAAATACACACATGAATGAATATATA [CACACA_site419]” was tested, and the “gcPBM binding intensity (ln)” value was 9.61.
“TATACTCATAAATACACACACATATATATATATATA [CACACA_site5822]” was tested, and the “gcPBM binding intensity (ln)” value was 9.64.
In the case of “GGGGGCTTTTATAAAAGTACAAAATGAATAAAAATT [XGTACX_site2393]”, the “gcPBM binding intensity (ln)” value was 9.25.
“TATACATACCCACCCACACACAAAAAAAAAAAAAAA [CACACA_site4632]” was tested, and the “gcPBM binding intensity (ln)” value was 9.68.
For “TTAATTATGTTTTGGTGTACAATAAATTGAATAGAT [XGTACX_site3306]”, the “gcPBM binding intensity (ln)” value was 9.16.
For “CTACTTAATATTTGTACACACATATTTAACCTACTA [CACACA_site5725]”, the “gcPBM binding intensity (ln)” value was 9.62.
ATGTTATAATTTAGTGTGCACATATTAAGAGGAACA was tested, and the “gcPBM binding intensity (ln)” value was 9.57.
In the case of “ATATATATTTATATATGTACATATTTTTGTGTATTT [XGTACX_site1183]”, the “gcPBM binding intensity (ln)” value was 9.55.
With “AATAATAATAGAAACACACACACATTTTTAATAATA [CACACA_site1217]” the “gcPBM binding intensity (ln)” value was 10.1.
“ATATATATATATATATGTACATAATAATTTTATAAA [XGTACX_site5105]” was tested, and the “gcPBM binding intensity (ln)” value was 9.08.
For “CTTTTTTTTTTTTTTTGTCCGTATGAGGGACCTATA [XGTACX_site8839]”, the “gcPBM binding intensity (ln)” value was 8.94.
“TCCATTGTCACCTTTTGTACTTAAATTTTTTCCTCC [XGTACX_site1573]” was tested, and the “gcPBM binding intensity (ln)” value was 9.24.
For “TGAGATAAATGTGGTAGTACATTTTTTTTATATATA [XGTACX_site1918]”, the “gcPBM binding intensity (ln)” value was 9.17.
“ATATCATCTTCTCTATCATTTTTTTTTTTTTTTTTT [CACACA_negctrl_site1220]” was tested, and the “gcPBM binding intensity (ln)” value was 9.37.
With “ATAAAAAAATCAGACACACACACGTAAACACATACA [CACACA_site5529]” the “gcPBM binding intensity (ln)” value was 10.1.
In the case of “CAAAAATTACCCTTGTGTACACATATATTATATGTA [XGTACX_site1124]”, the “gcPBM binding intensity (ln)” value was 9.47.
“TACAAAAGCTATAACATTCACCACATTATAAAAATA [CACACA_negctrl_site1112]” was tested, and the “gcPBM binding intensity (ln)” value was 9.26.
With “TTTAAAAAAAAAAATACACACATAAAAGTTTTCAAA [CACACA_site6471]” the “gcPBM binding intensity (ln)” value was 9.37.
With “TTTTCATTAAGATACTTATAATAGTTTATTAGTAAA [CACACA_negctrl_site586]” the “gcPBM binding intensity (ln)” value was 8.77.
For “TTACAAATATTATAATGTACCCATTTTTTTTGCCTT [XGTACX_site6612]”, the “gcPBM binding intensity (ln)” value was 9.16.
In the case of “TAATATGAAGATGGCAGTACTCTAGTCAATTTTTAC [XGTACX_site5375]”, the “gcPBM binding intensity (ln)” value was 9.18.
For “AATTCAAAGAAAAACTGTACGTGTAGCAAACATCCT [XGTACX_site599]”, the “gcPBM binding intensity (ln)” value was 9.43.
